Values marked as one replicate rest on one cluster of the flow cell; about a third of the high ones do not repeat.
test system: ATP; experiment: switch fluorescence ratio, 500 uM ATP over buffer (Cy3 cluster intensity, sum of 5 cycles each) (fold (ratio)); higher = stronger signal-on switching upon ATP binding; sequences stand for … in TCGTCGGCAGCGTCAGATGTGTATAAGAGACAGTTTTTTTTTTTTTTTTTTTTTTTTT…TC; settings: aptamer strand: ATP DNA aptamer (quencher-CACCTGGGGGAGTATTGCGGAGGAAGG + anchor), 100 nM annealed; ATP concentration: 500 uM; one replicate
Summary of the method: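 Imaging in selection buffer was followed by imaging after 15 min with 500 uM ATP at 22 °C, for Cy3-labelled switching-strand clusters annealed to 100 nM quencher-labelled ATP aptamer on a modified Illumina MiSeq flow-cell. Five of these buffer/ATP cycles ran, separated by NaOH stripping and re-annealing. The fluorescence ratio per cluster is summed target-cycle over summed buffer-cycle Cy3 intensity, averaged per switch-domain sequence; clusters outside 100-1000 RFU were removed.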
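Note: ATP exposure 15 min at 22 °C before imaging.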

Q: How did the switch fluorescence ratio turn out when GGCATTCGTC was run?
A: 0.969

Q: For GGCATTGATA, which switch fluorescence ratio is on record?
A: 1

Q: How did the switch fluorescence ratio turn out when GGCATTTACC was run?
A: 1.06

Q: For GGCATTTCAA, which switch fluorescence ratio is on record?
A: 1.01

Q: With GGCATTTCGG as the sequence, how does the switch fluorescence ratio read?
A: 0.95

Q: Which switch fluorescence ratio does the source give for GGCATTTCGT here?
A: 1.07

Q: With GGCATTTGCG as the sequence, how does the switch fluorescence ratio read?
A: 0.93

Q: With GGCATTTTCG as the sequence, how does the switch fluorescence ratio read?
A: 1.04

Q: GGCCAGGAAG was tested. Which switch fluorescence ratio did it give?
A: 1

Q: How did the switch fluorescence ratio turn out when GGCCATACTT was run?
A: 1.03

Q: How did the switch fluorescence ratio turn out when GGCCCAAGCT was run?
A: 0.988

Q: With GGCCCACAAT as the sequence, how does the switch fluorescence ratio read?
A: 1.03

Q: With GGCCCAGTGG as the sequence, how does the switch fluorescence ratio read?
A: 1.1

Q: For GGCCCCCTTG, which switch fluorescence ratio is on record?
A: 1.15

Q: For GGCCCCGCGG, which switch fluorescence ratio is on record?
A: 0.978

Q: With GGCCCGCATC as the sequence, how does the switch fluorescence ratio read?
A: 3.71

Q: Which switch fluorescence ratio does the source give for GGCCCGCGGT here?
A: 1.02

Q: GGCCCGGTT was tested. Which switch fluorescence ratio did it give?
A: 1.01

Q: For GGCCCTAATT, which switch fluorescence ratio is on record?
A: 0.975

Q: How did the switch fluorescence ratio turn out when GGCCCTATAA was run?
A: 0.927

Q: Which switch fluorescence ratio does the source give for GGCCCTTCTC here?
A: 1.19

Q: With GGCCGCGGGG as the sequence, how does the switch fluorescence ratio read?
A: 1

Q: With GGCCGCTAGG as the sequence, how does the switch fluorescence ratio read?
A: 1.01

Q: GGCCGGGATA was tested. Which switch fluorescence ratio did it give?
A: 1.03

Q: How did the switch fluorescence ratio turn out when GGCCGGGTCC was run?
A: 1.01

Q: For GGCCGGTCAG, which switch fluorescence ratio is on record?
A: 1.04

Q: For GGCCGTAGAG, which switch fluorescence ratio is on record?
A: 1

Q: Which switch fluorescence ratio does the source give for GGCCTAAGGA here?
A: 1.02

Q: Which switch fluorescence ratio does the source give for GGCCTACGCC here?
A: 1.05

Q: With GGCCTTGTCA as the sequence, how does the switch fluorescence ratio read?
A: 1.03

Q: GGCCTTTAAC was tested. Which switch fluorescence ratio did it give?
A: 1

Q: For GGCGAACGCG, which switch fluorescence ratio is on record?
A: 1.01

Q: For GGCGATAATC, which switch fluorescence ratio is on record?
A: 1.19

Q: With GGCGATTGAC as the sequence, how does the switch fluorescence ratio read?
A: 0.998

Q: How did the switch fluorescence ratio turn out when GGCGCAGCTC was run?
A: 1.03

Q: GGCGCAGCTT was tested. Which switch fluorescence ratio did it give?
A: 0.97

Q: For GGCGCCAGAA, which switch fluorescence ratio is on record?
A: 0.991

Q: How did the switch fluorescence ratio turn out when GGCGCCTGAG was run?
A: 1.01

Q: GGCGCCTGTT was tested. Which switch fluorescence ratio did it give?
A: 0.971

Q: With GGCGCCTTGA as the sequence, how does the switch fluorescence ratio read?
A: 0.953

Q: How did the switch fluorescence ratio turn out when GGCGCGCCGA was run?
A: 0.969

Q: For GGCGCGCTTG, which switch fluorescence ratio is on record?
A: 1

Q: With GGCGCTCATG as the sequence, how does the switch fluorescence ratio read?
A: 0.999

Q: GGCGCTTGAG was tested. Which switch fluorescence ratio did it give?
A: 1.02

Q: How did the switch fluorescence ratio turn out when GGCGGCTCAC was run?
A: 1.04

Q: With GGCGGGGGT as the sequence, how does the switch fluorescence ratio read?
A: 1

Q: Which switch fluorescence ratio does the source give for GGCGGGTCGC here?
A: 0.993

Q: How did the switch fluorescence ratio turn out when GGCGGGTTCA was run?
A: 0.99

Q: For GGCGGTCGAG, which switch fluorescence ratio is on record?
A: 1.05

Q: GGCGGTTTGC was tested. Which switch fluorescence ratio did it give?
A: 1.01

Q: For GGCGTAATG, which switch fluorescence ratio is on record?
A: 0.985

Q: With GGCGTATATT as the sequence, how does the switch fluorescence ratio read?
A: 1

Q: Which switch fluorescence ratio does the source give for GGCGTGATAT here?
A: 1

Q: GGCGTGCTCG was tested. Which switch fluorescence ratio did it give?
A: 1.03

Q: How did the switch fluorescence ratio turn out when GGCGTTGTCT was run?
A: 1

Q: For GGCTACAAGC, which switch fluorescence ratio is on record?
A: 0.988

Q: GGCTAGGGCC was tested. Which switch fluorescence ratio did it give?
A: 1.02

Q: GGCTAGTTAA was tested. Which switch fluorescence ratio did it give?
A: 0.98

Q: With GGCTCACCAC as the sequence, how does the switch fluorescence ratio read?
A: 1.02

Q: How did the switch fluorescence ratio turn out when GGCTCAGGGA was run?
A: 1.03

Q: How did the switch fluorescence ratio turn out when GGCTCATTAA was run?
A: 0.999

Q: Which switch fluorescence ratio does the source give for GGCTCCCTCC here?
A: 1.37

Q: For GGCTCGTTAC, which switch fluorescence ratio is on record?
A: 1.19

Q: How did the switch fluorescence ratio turn out when GGCTCTATTG was run?
A: 0.963

Q: For GGCTGAAGAC, which switch fluorescence ratio is on record?
A: 1.02

Q: For GGCTGGCTGC, which switch fluorescence ratio is on record?
A: 0.952

Q: How did the switch fluorescence ratio turn out when GGCTGTGAGG was run?
A: 0.94

Q: For GGCTTCCCCG, which switch fluorescence ratio is on record?
A: 4.36

Q: Which switch fluorescence ratio does the source give for GGCTTCGCTG here?
A: 1.01

Q: For GGCTTGATGG, which switch fluorescence ratio is on record?
A: 0.985

Q: For GGCTTGCTGT, which switch fluorescence ratio is on record?
A: 0.982

Q: Which switch fluorescence ratio does the source give for GGCTTGTAAA here?
A: 0.987

Q: For GGCTTTGATC, which switch fluorescence ratio is on record?
A: 1.05

Q: How did the switch fluorescence ratio turn out when GGGAAAGCGG was run?
A: 0.984

Q: Which switch fluorescence ratio does the source give for GGGAACGCTT here?
A: 0.968

Q: Which switch fluorescence ratio does the source give for GGGAACTGGT here?
A: 1.01

Q: For GGGAAGACCT, which switch fluorescence ratio is on record?
A: 0.953

Q: GGGAAGGAGC was tested. Which switch fluorescence ratio did it give?
A: 1

Q: With GGGAAGTACC as the sequence, how does the switch fluorescence ratio read?
A: 1.25

Q: Which switch fluorescence ratio does the source give for GGGAAGTATC here?
A: 1.05

Q: Which switch fluorescence ratio does the source give for GGGAATAAAA here?
A: 0.969

Q: With GGGAATAGCA as the sequence, how does the switch fluorescence ratio read?
A: 0.983

Q: With GGGAATTATT as the sequence, how does the switch fluorescence ratio read?
A: 0.983

Q: How did the switch fluorescence ratio turn out when GGGACCCTTT was run?
A: 1.02

Q: GGGACGCGTG was tested. Which switch fluorescence ratio did it give?
A: 1.05

Q: GGGACGGATC was tested. Which switch fluorescence ratio did it give?
A: 1.02

Q: Which switch fluorescence ratio does the source give for GGGACTCGGC here?
A: 1.03

Q: With GGGACTCTCG as the sequence, how does the switch fluorescence ratio read?
A: 0.956

Q: For GGGACTTTGC, which switch fluorescence ratio is on record?
A: 1.02

Q: GGGAGAAGCA was tested. Which switch fluorescence ratio did it give?
A: 0.98

Q: With GGGAGCCTAA as the sequence, how does the switch fluorescence ratio read?
A: 1

Q: Which switch fluorescence ratio does the source give for GGGAGCCTGC here?
A: 1.02

Q: Which switch fluorescence ratio does the source give for GGGAGGAAAT here?
A: 1.02

Q: How did the switch fluorescence ratio turn out when GGGAGGCCGC was run?
A: 0.988

Q: How did the switch fluorescence ratio turn out when GGGAGGGGAT was run?
A: 1.05

Q: For GGGAGTCGAG, which switch fluorescence ratio is on record?
A: 1.03

Q: GGGATAAACC was tested. Which switch fluorescence ratio did it give?
A: 1.02

Q: GGGATACCGT was tested. Which switch fluorescence ratio did it give?
A: 1.05

Q: Which switch fluorescence ratio does the source give for GGGATAGGTG here?
A: 1.11

Q: GGGATATA was tested. Which switch fluorescence ratio did it give?
A: 1.01

Reference: the supplement of paper PMC10126150
